# Experimental data as given in the supplement of paper PMC8728848.
# The other results are listed elsewhere or left out.
# B1: Als1 (Candida albicans), P46590 (protein)
# chain: KTITGVFDSFNSLTWSNAANYAFKGPGYPTWNAVLGWSLDGTSANPGDTFTLNMPCVFKYTTSQTSVDLTADGVKYATCQFYSGEEFTTFSTLTCTVNDALKSSIKAFGTVTLPIAFNVGGTGSSTDLEDSKCFTAGTNTVTFNDGDKDISIDVEFEKSTVDPSGYLYASRVMPSLNKVTTLFVAPQCENGYTSGTMGFSSSNGDVAIDCSNIHIGITKGLNDWNYPVSSESFSYTKTCTSNGIQIKYQNVPAGYRPFIDAYISATDVNQYTLAYTNDYTCAGSRLQSKPFTLRWTGYKNSDAGSNGIVIVATTRTVTDSTTAVTTLPFNPSVDKTKTIEILQPIPTTTITTSYVGVTTSYLTKTAPIGETATVIVDVPYHTTTTVTSEWTGTITTTTTRTNPTDSIDTVVVQVP
# How the values were obtained:
# Assay in all cases: glycan array binding signal (z-score within array); higher = stronger binding
# Details in all cases: glycan notation: IUPAC condensed, linker removed
# Kdn(a2-3)Gal(b1-3)GlcNAc = target: Kdn(a2-3)Gal(b1-3)GlcNAc
# Summary of the method: (§1)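 Glycan array data were curated from 3228 arrays in the Consortium for Functional Glycomics database and kept only where the protein sequence was available. Glycan names were converted to IUPAC-condensed notation, and columns mapping to the same glycan were averaged. The binding signal is a within-array Z-score, averaged across arrays of the same protein sequence at different concentrations or buffers and across linkers. Negative Z-scores can be read as non-binding.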
# Kdn(a2-3)Gal(b1-4)Glc = target: Kdn(a2-3)Gal(b1-4)Glc
# Summary of the method: as §1
# Kdn(a2-3)Gal(b1-4)GlcNAc = target: Kdn(a2-3)Gal(b1-4)GlcNAc
# Summary of the method: as §1
# [1] = target: Kdn(a2-3)Gal(b1-4)[Fuc(a1-3)]GlcNAc
# Summary of the method: as §1
# Kdn(a2-6)Gal(b1-4)GlcNAc = target: Kdn(a2-6)Gal(b1-4)GlcNAc
# Summary of the method: as §1
# [2] = target: Man(a1-2)Man(a1-2)Man(a1-3)Man
# Summary of the method: as §1
# [3] = target: Man(a1-2)Man(a1-2)Man(a1-6)[Man(a1-3)]Man
# Summary of the method: as §1
# Man(a1-2)Man(a1-3)Man = target: Man(a1-2)Man(a1-3)Man
# Summary of the method: as §1
# [4] = target: Man(a1-2)Man(a1-3)[Man(a1-2)Man(a1-6)]Man
# Summary of the method: as §1
# [5] = target: Man(a1-2)Man(a1-3)[Man(a1-2)Man(a1-6)]Man(a1-6)[Man(a1-2)Man(a1-2)Man(a1-3)]Man
# Summary of the method: as §1
# [6] = target: Man(a1-2)Man(a1-3)[Man(a1-2)Man(a1-6)]Man(a1-6)[Man(a1-2)Man(a1-2)Man(a1-3)]Man(b1-4)GlcNAc(b1-4)GlcNAc
# Summary of the method: as §1
# [7] = target: Man(a1-2)Man(a1-3)[Man(a1-6)]Man(a1-6)[Man(a1-2)Man(a1-3)]Man(b1-4)GlcNAc(b1-4)GlcNAc
# Summary of the method: as §1
# [8] = target: Man(a1-2)Man(a1-6)[Man(a1-3)]Man(a1-6)[Man(a1-2)Man(a1-2)Man(a1-3)]Man
# Summary of the method: as §1
# [9] = target: Man(a1-2)Man(a1-6)[Man(a1-3)]Man(a1-6)[Man(a1-2)Man(a1-2)Man(a1-3)]Man(b1-4)GlcNAc(b1-4)GlcNAc
# Summary of the method: as §1
# Man(a1-3)[Man(a1-6)]Man = target: Man(a1-3)[Man(a1-6)]Man
# Summary of the method: as §1
# [10] = target: Man(a1-3)[Man(a1-6)]Man(a1-6)[Man(a1-2)Man(a1-3)]Man(b1-4)GlcNAc(b1-4)GlcNAc
# Summary of the method: as §1
# [11] = target: Man(a1-3)[Man(a1-6)]Man(a1-6)[Man(a1-3)]Man
# Summary of the method: as §1
# [12] = target: Man(a1-3)[Man(a1-6)]Man(a1-6)[Man(a1-3)]Man(b1-4)GlcNAc(b1-4)GlcNAc
# Summary of the method: as §1
# [13] = target: Man(a1-3)[Man(a1-6)]Man(b1-4)GlcNAc(b1-4)GlcNAc
# Summary of the method: as §1
# [14] = target: Man(a1-3)[Man(a1-6)]Man(b1-4)GlcNAc(b1-4)[Fuc(a1-6)]GlcNAc
# Summary of the method: as §1
# Man(a1-6)Man = target: Man(a1-6)Man
# Summary of the method: as §1
# Man(b1-4)GlcNAc = target: Man(b1-4)GlcNAc
# Summary of the method: as §1
# MurNAc(b1-4)GlcNAc = target: MurNAc(b1-4)GlcNAc
# Summary of the method: as §1
# Neu5Ac(a2-3)Gal = target: Neu5Ac(a2-3)Gal
# Summary of the method: as §1
# [15] = target: Neu5Ac(a2-3)Gal(b1-3)GalNAc
# Summary of the method: as §1
# [16] = target: Neu5Ac(a2-3)Gal(b1-3)GalNAc(b1-3)Gal(a1-4)Gal(b1-4)Glc
# Summary of the method: as §1
# [17] = target: Neu5Ac(a2-3)Gal(b1-3)GalNAc(b1-4)[Neu5Ac(a2-3)]Gal(b1-4)Glc
# Summary of the method: as §1
# [18] = target: Neu5Ac(a2-3)Gal(b1-3)GalNAc(b1-4)[Neu5Ac(a2-8)Neu5Ac(a2-3)]Gal(b1-4)Glc
# Summary of the method: as §1
# [19] = target: Neu5Ac(a2-3)Gal(b1-3)GalNAc6S
# Summary of the method: as §1
# [20] = target: Neu5Ac(a2-3)Gal(b1-3)GlcNAc
# Summary of the method: as §1
# [21] = target: Neu5Ac(a2-3)Gal(b1-3)GlcNAc(b1-2)Man
# Summary of the method: as §1
# [22] = target: Neu5Ac(a2-3)Gal(b1-3)GlcNAc(b1-2)Man(a1-3)[GlcNAc(b1-4)][Neu5Ac(a2-3)Gal(b1-3)GlcNAc(b1-2)Man(a1-6)]Man(b1-4)GlcNAc(b1-4)GlcNAc
# Summary of the method: as §1
# [23] = target: Neu5Ac(a2-3)Gal(b1-3)GlcNAc(b1-2)Man(a1-3)[Neu5Ac(a2-3)Gal(b1-3)GlcNAc(b1-2)Man(a1-6)]Man(b1-4)GlcNAc(b1-4)GlcNAc
# Summary of the method: as §1
# [24] = target: Neu5Ac(a2-3)Gal(b1-3)GlcNAc(b1-3)Gal(b1-3)GlcNAc
# Summary of the method: as §1
# [25] = target: Neu5Ac(a2-3)Gal(b1-3)GlcNAc(b1-3)Gal(b1-4)GlcNAc
# Summary of the method: as §1
# [26] = target: Neu5Ac(a2-3)Gal(b1-3)GlcNAc(b1-3)GalNAc
# Summary of the method: as §1
# [27] = target: Neu5Ac(a2-3)Gal(b1-3)GlcNAc(b1-4)Gal(b1-4)Glc
# Summary of the method: as §1
# [28] = target: Neu5Ac(a2-3)Gal(b1-3)GlcNAc(b1-6)GalNAc
# Summary of the method: as §1
binder,measurement,setting,value
B1,glycan array binding signal (z-score),Kdn(a2-3)Gal(b1-3)GlcNAc,-0.14
same,glycan array binding signal (z-score),Kdn(a2-3)Gal(b1-4)Glc,1.36
same,glycan array binding signal (z-score),Kdn(a2-3)Gal(b1-4)GlcNAc,-0.488
same,glycan array binding signal (z-score),[1],0.367
same,glycan array binding signal (z-score),Kdn(a2-6)Gal(b1-4)GlcNAc,-0.167
same,glycan array binding signal (z-score),[2],1.79
same,glycan array binding signal (z-score),[3],-0.553
same,glycan array binding signal (z-score),Man(a1-2)Man(a1-3)Man,0.146
same,glycan array binding signal (z-score),[4],-0.8
same,glycan array binding signal (z-score),[5],-1.1
same,glycan array binding signal (z-score),[6],0.673
same,glycan array binding signal (z-score),[7],-0.52
same,glycan array binding signal (z-score),[8],-0.696
same,glycan array binding signal (z-score),[9],-0.578
same,glycan array binding signal (z-score),Man(a1-3)[Man(a1-6)]Man,-0.448
same,glycan array binding signal (z-score),[10],-0.404
same,glycan array binding signal (z-score),[11],1.09
same,glycan array binding signal (z-score),[12],-0.35
same,glycan array binding signal (z-score),[13],-0.299
same,glycan array binding signal (z-score),[14],-0.09
same,glycan array binding signal (z-score),Man(a1-6)Man,2.42
same,glycan array binding signal (z-score),Man(b1-4)GlcNAc,-0.265
same,glycan array binding signal (z-score),MurNAc(b1-4)GlcNAc,0.537
same,glycan array binding signal (z-score),Neu5Ac(a2-3)Gal,1.18
same,glycan array binding signal (z-score),[15],-0.421
same,glycan array binding signal (z-score),[16],-0.623
same,glycan array binding signal (z-score),[17],-0.587
same,glycan array binding signal (z-score),[18],-0.111
same,glycan array binding signal (z-score),[19],-0.676
same,glycan array binding signal (z-score),[20],-0.408
same,glycan array binding signal (z-score),[21],0.341
same,glycan array binding signal (z-score),[22],0.264
same,glycan array binding signal (z-score),[23],-0.644
same,glycan array binding signal (z-score),[24],-0.269
same,glycan array binding signal (z-score),[25],-0.473
same,glycan array binding signal (z-score),[26],-0.559
same,glycan array binding signal (z-score),[27],4.25
same,glycan array binding signal (z-score),[28],-0.166
